The values below come from PubChem BioAssay AID463173 (ICCB-Longwood Screening Facility, Harvard Medical School, 2010).

The whole screen tested about 52,000 compounds, of which about 4,300 (8.3%) were called active. No stated cut-off is given here; in the data, active means survival mostly below about 52% (no sharp cut-off); inactive means mostly above about 56%. The list shows a part of the results.

For the experiment, the system named is DeltatarO mutant. The experiment is described as follows: S. aureus survival, RN4220 and DeltatarO strains – OD600, teichoic acid synthesis inhibitors, primary screen (AID 463173). The settings on record: S. aureus RN4220 wild type/DeltatarO growth, OD600, 18 h, active compounds read low, screened at 18.75 µg/mL (by protocol).
As to `COc1ccc(NC(=O)CC2C(=O)N(c3cccc(OC)c3)C(=O)N2Cc2ccc3c(c2)OCO3)cc1` (stereo not given), the survival is inactive: 82%.
In the case of `Cc1ccc(-c2cn(-c3ccc(Cl)cc3)c(S(=O)(=O)CC(=O)Nc3ccccc3)n2)cc1` it was inactive: 62%; in that of `Cc1cc(C)cc(-n2ccn(Cc3ccc(F)cc3)c(=O)c2=O)c1`, inactive: 71%.
Turning to `CCOc1ccc(S(=O)(=O)NCCc2sc3nc(-c4ccc(C)cc4)nn3c2C)cc1`, the survival was inactive: 109%.
Consider `CCCn1c(CCC(=O)Nc2ccccc2OC)nc2cccnc21`, for which the survival is inactive: 88%.
Turning to `Cc1cccc(C)c1Nc1c(-c2ccc(O)cc2)nc2sccn12`, the survival is active: 28%.
Turning to `O=c1oc2ccccc2cc1-c1cn2cc(Cc3ccc(Br)cc3)sc2n1`, the survival is inactive: 66%.
For `Cc1cc(-c2ccccc2)c(C#N)c(N)n1`, the survival was inactive: 74%.
For the compound `Fc1ccc(Br)cc1C1C=C(c2ccc(Br)cc2)Nc2nnnn21` (stereo not given), the survival is inactive: 91%.
In the case of `CC1=Nc2cc(C(=O)NC(C)C)ccc2Sc2ccc(C)cc21`, the survival is inactive: 73%.
For the compound `CC(C)NC(=O)C1CCN(C(=O)c2ccc(Cl)cc2)CC1`, the survival was inactive: 88%.
Consider `Cc1ccc(CNC(=O)CCCN2C(=O)COc3ccc(C)cc32)cc1`, for which the survival is inactive: 85%.
Regarding `CN(C)/C(=N\O)c1nonc1N`, the survival is inactive: 80%.
In the case of `O=C(CC1N=C2c3ccccc3N=C(SCC(=O)Nc3ccccc3F)N2C1=O)NCc1cccs1` (stereo not given), the survival is inactive: 91%.
In the case of `Cc1cccc(NC(=O)C(=O)NCCc2csc(-c3ccc(C(F)(F)F)cc3)n2)c1C`, the survival is inactive: 102%.
In the case of `Cc1cc(C)cc(NC(=O)C2CCN(S(=O)(=O)c3cccc(-c4noc(C)n4)c3)CC2)c1` it was active: -5%; in that of `Cc1cc(NC(=O)CSc2ccccc2)no1`, inactive: 88%.
In the case of `CCc1ccc(CN(C(=O)c2cc(=O)c3ccc(C)cc3o2)C2CCS(=O)(=O)C2)cc1` (stereo not given), the survival was inactive: 107%.
As to `O=C(O)c1cccc(N=NN2CCOCC2)c1`, the survival is inactive: 80%.
For the compound `CC(C)Cn1c(=O)c2sccc2n2c(CCCC(=O)NC3CCCCC3)nnc12`, the survival was inactive: 107%.
In the case of `COc1cccc(CNC(=O)CCCn2nc(C)c3c(C)n(-c4ccc(C)cc4)nc3c2=O)c1OC` it was inactive: 88%; in that of `CCN(CC)CCNC(=O)c1ccc(-n2c(-c3ccccc3)cc3c2CCCC3)cc1`, active: 8%; in that of `CN(C)S(=O)(=O)c1ccc2c(c1)C(CC(=O)O)OC2=O` (stereo not given), inactive: 99%.
Consider `Cc1ccc(NC(=O)c2c(NC(=O)c3ccccc3)sc3c2CCC3)cc1`, for which the survival was inactive: 76%.
As to `Cc1ccc2sc(N(Cc3cccnc3)C(=O)C3COc4ccccc4O3)nc2c1C` (stereo not given), the survival is inactive: 76%.
In the case of `CC1CCc2c(sc(NC(=O)c3cc(-c4ccc(F)cc4)on3)c2C(N)=O)C1` (stereo not given) it was inactive: 74%; in that of `Cc1c(C#N)c2ccccc2n1CC(=O)NC1CCCCCC1`, inactive: 72%; in that of `Cc1c(C(=O)NCc2ccc(OC(C)C)cc2)sc2ncnc(N(C)C3CCCCC3)c12`, inactive: 98%.
For the compound `CC1=Nc2cc(C(=O)N3CCCCC3)ccc2Sc2ccc(C)cc21`, the survival was inactive: 48%.
In the case of `COc1ccccc1CCNC(=O)CCCn1c(=O)c2cccn2c2cccnc21`, the survival is inactive: 92%.
For the compound `COc1ccc(-c2nc(CN3CCC(C(=O)NCc4ccc(F)cc4)CC3)c(C)o2)cc1OC`, the survival was inactive: 101%.
As to `CCCC(=O)Nc1nnc(SCc2cc(=O)n3cccc(C)c3n2)s1`, the survival is inactive: 82%.
As to `COc1ccc(CNC(=O)Cn2ncc3c(=O)oc4ccc(C)cc4c32)c(OC)c1`, the survival is inactive: 107%.
Turning to `Cc1cc(=O)n2[nH]c(NC(=O)c3cccc(Cl)c3)nc2n1`, the survival is inactive: 101%.
For the compound `Cn1nnnc1SCC(=O)OC1CCCCC1`, the survival is inactive: 87%.
Take `COc1cc(Cl)c(C)cc1NC(=O)c1nn(C)c2c1CSc1ccccc1-2`: the survival was inactive: 83%.
In the case of `CCCCc1nc2c(nnn2Cc2ccccc2)c(=O)[nH]1` it was inactive: 82%; in that of `O=C(CCCCn1c(=O)c2ccccc2n(Cc2cccc(Cl)c2)c1=O)NCc1ccc2c(c1)OCO2`, inactive: 85%; in that of `COc1ccc(CNC(=O)c2cc(-c3ccc(Cl)cc3)n[nH]2)cc1`, inactive: 78%.
In the case of `O=C(NCc1nc(-c2ccccc2)no1)c1ccco1` it was inactive: 68%; in that of `CCOC(=O)c1c(C)oc2nc(C)nc(N3CCN(c4cccc(C(F)(F)F)c4)CC3)c12`, inactive: 80%; in that of `COc1ccc(C2CC(=O)N(CC(=O)Nc3ccc(C(C)=O)cc3)c3ccccc3S2)cc1OC` (stereo not given), inactive: 94%.
With `CCCN(CCC)CCNC(=O)c1nn(C)c2c1CS(=O)(=O)c1ccccc1-2` the figure was inactive: 61%; with `O=C(NCC(c1ccc2c(c1)OCO2)N1CCN(c2ccccc2F)CC1)c1ccccc1F` (stereo not given), inactive: 71%; with `O=c1[nH]cnc2nc3c4ccccc4c4ccccc4c3nc12`, inactive: 74%.
As for `CCOC(=O)c1c(NC(=O)/C=C/c2ccc(Cl)cc2)sc2c1CCC(C)C2` (stereo not given), the survival was active: 44%.
Regarding `Cc1ccccc1C(=O)n1nc(-c2ccco2)nc1NCc1cccs1`, the survival is inactive: 58%.
In the case of `Cc1ccc2[nH]c(CSc3nnc(NC(=O)COc4ccc(F)cc4)s3)cc(=O)c2c1`, the survival was inactive: 81%.
As to `COc1ccc(Nc2cc(C(=O)NCCCN(C)C3CCCCC3)c3ccccc3n2)c(OC)c1`, the survival is inactive: 106%.
`COC(=O)c1ccc2c(=O)n(CCCCCC(=O)NCc3ccc(OC)cc3)c(=O)[nH]c2c1`: the survival is inactive: 71%.
With `COc1ccc(-c2cc(C)no2)cc1S(=O)(=O)N1CCOc2ccc(Cl)cc21` the figure was inactive: 92%; with `CCCN1CCN(c2cc(-c3ccccc3)nc3cc(-c4cccc(F)c4)nn23)CC1`, inactive: 68%.
For the compound `CNC(=O)C1C2C=CC3(O2)C1C(=O)N(C1CC1)C3C(=O)NCc1ccc(OC)cc1` (stereo not given), the survival is inactive: 95%.
As for `CC(C)c1ccc(NC(=O)CN2C(=O)COc3ccc(S(=O)(=O)N4CCOCC4)cc32)cc1`, the survival is inactive: 67%.
In the case of `COc1ccc(CCNc2nc(SCc3cccc(F)c3)nc3ccccc23)cc1OC` it was inactive: 85%; in that of `CCCN(CCC)CCCNC(=O)c1cn(C)c2ccc(S(=O)(=O)N3CCOCC3)cc2c1=O`, inactive: 90%; in that of `CCCn1c2ccccc2c2cnn(CC(=O)NCCCN(Cc3ccccc3)C(C)C)c(=O)c21`, inactive: 88%.
As for `O=S(=O)(NCCc1csc2nc(-c3ccc(Cl)cc3)nn12)c1ccc2c(c1)OCCO2`, the survival was inactive: 72%.
On to `CCc1ccc(C2c3c(-c4ccccc4)n[nH]c3C(=O)N2c2ccc(C(=O)O)cc2)cc1` (stereo not given), for which the survival was active: 48%.
For `COc1cccc(-n2cc(C(=O)NCc3ccc(C)cc3)c3ccccc3c2=O)c1`, the survival was inactive: 81%.
With `O=C(CN1N=C(c2ccccc2)CCC1=O)NCc1ccc(F)cc1Cl`, the survival was inactive: 88%.
With `O=C(CSc1nccn1Cc1ccc(Cl)cc1)Nc1ccc2c(c1)OCO2` the figure was inactive: 99%; with `Cc1nn(-c2ccc(N3CCOCC3)nn2)c(C)c1CCC(=O)Nc1ccc(F)cc1F`, inactive: 116%; with `O=C(Nc1ccc(NC(=O)c2ccccc2F)cn1)c1ccco1`, inactive: 82%.
Take `COc1ccc(NC(=O)C2CCCN(S(=O)(=O)c3c(C)[nH]c(=O)[nH]c3=O)C2)cc1Cl` (stereo not given): the survival is inactive: 84%.
In the case of `Cc1cc(C)cc(OCCSc2nc(-c3cccs3)nc3cc(=O)[nH]n23)c1` it was inactive: 67%; in that of `CCc1cc2c(cc3c(=O)n(CC(=O)NCCc4ccccc4)ncn32)s1`, inactive: 83%.
With `O=C(Nc1ccc(Cl)c(C(F)(F)F)c1)C(Cc1ccccc1)NS(=O)(=O)c1cccc2nsnc12` (stereo not given) the figure was inactive: 64%; with `Cc1ccc(C)c(NC(=O)c2ccc3c(c2)CCN3S(=O)(=O)c2ccccc2)c1`, active: 40%.
Turning to `CCC(Sc1nc2ncccc2o1)C(=O)Nc1cccc(C)c1` (stereo not given), the survival is inactive: 84%.
For `O=c1[nH]cnc2c1nnn2Cc1ccccc1F`, the survival is inactive: 88%.
With `O=C(CCCn1c(=O)[nH]c2ccccc2c1=O)N1CCN(c2ccccc2)CC1` the figure was inactive: 116%; with `CCOC(=O)c1cc2c(=O)n3ccccc3nc2n(Cc2ccco2)c1=NC(=O)c1ccc(F)cc1`, active: 43%; with `O=S(=O)(NCCc1cn2ccsc2n1)c1ccc(Cl)cc1`, inactive: 109%.
Regarding `CCCCCCc1cc2cc(-c3cn4c(n3)sc3cc(OC)ccc34)c(=O)oc2cc1O`, the survival was inactive: 94%.
For the compound `COc1ccc(CN(C(=O)c2ccc(CN3CCOCC3)o2)C(C(=O)NCC2CCCO2)c2ccc(F)cc2)cc1` (stereo not given), the survival was inactive: 68%.
As for `Cc1ccc(C(=O)NC2CC3CCCC(C2)N3C(=O)NC2CCCCC2)cc1` (stereo not given), the survival is inactive: 62%.
With `Cc1cc(=O)n2c([nH]c3ccccc32)c1C(=O)O`, the survival was inactive: 61%.
In the case of `Cc1ccc(C(=O)c2sc(Nc3ccc(F)cc3)nc2N)c(C)c1`, the survival was inactive: 78%.
Turning to `Cc1ccc2c(c1)C(C)(c1ccccc1)CC(C)(C)N2C(=O)c1ccc(F)cc1` (stereo not given), the survival was active: -4%.
Consider `COc1ccc(-c2nc(CNC(=O)NC3CCCCC3)c(C)o2)c(OC)c1`, for which the survival was inactive: 94%.
`CC(=O)c1ccc(NC(=O)Cn2c(=O)oc3cc(S(=O)(=O)N4CCCCC4)ccc32)cc1`: the survival was inactive: 86%.
Take `O=C1CCCc2[nH]c(=O)c(-c3nc(-c4cccc([N+](=O)[O-])c4)cs3)cc21`: the survival is inactive: 47%.
Regarding `CCOc1ccccc1NC(=O)Cn1c(=O)n(Cc2ccccc2)c(=O)c2c3c(sc21)CN(C(C)=O)CC3`, the survival was inactive: 94%.
With `O=C(CCC1N=C2c3ccccc3N=C(SCc3ccc(Cl)cc3)N2C1=O)NC1CCCCC1` (stereo not given) the figure was inactive: 72%.
In the case of `COc1ccc(Cl)cc1NC(=O)c1sc2nc3c(cc2c1N)CN(C)CC3` it was inactive: 99%; in that of `Cc1cccc(C)c1NC(=O)Cn1c(=O)cc(C)c2c(C)nn(-c3cccc(Cl)c3C)c21`, inactive: 93%; in that of `Cc1ccc(-n2ncc3c(N4CCCCC4)ncnc32)cc1`, inactive: 95%.
`O=C(CN1CCN(C2CCCCC2)C(=O)C1=O)Nc1ccc(Cl)cc1`: the survival is inactive: 86%.
With `O=C(Nc1cccc(Cl)c1)c1cc(S(=O)(=O)N2CCC3(CC2)OCCO3)ccc1F`, the survival was inactive: 128%.
